Reference: PMC4336329 (PLoS ONE, 2015)
Screen size: about 310,000 compounds; about 2,200 (0.71%) showed an effect of 50% or more. Effects have a minus sign here. This is one part of the list.

molecular target: human ether-à-go-go-related gene (hERG) potassium channel (human, UniProt Q12809); assay: primary screen, population patch clamp on CHO cells stably expressing hERG
Sequence (Q12809 whole entry, looked up): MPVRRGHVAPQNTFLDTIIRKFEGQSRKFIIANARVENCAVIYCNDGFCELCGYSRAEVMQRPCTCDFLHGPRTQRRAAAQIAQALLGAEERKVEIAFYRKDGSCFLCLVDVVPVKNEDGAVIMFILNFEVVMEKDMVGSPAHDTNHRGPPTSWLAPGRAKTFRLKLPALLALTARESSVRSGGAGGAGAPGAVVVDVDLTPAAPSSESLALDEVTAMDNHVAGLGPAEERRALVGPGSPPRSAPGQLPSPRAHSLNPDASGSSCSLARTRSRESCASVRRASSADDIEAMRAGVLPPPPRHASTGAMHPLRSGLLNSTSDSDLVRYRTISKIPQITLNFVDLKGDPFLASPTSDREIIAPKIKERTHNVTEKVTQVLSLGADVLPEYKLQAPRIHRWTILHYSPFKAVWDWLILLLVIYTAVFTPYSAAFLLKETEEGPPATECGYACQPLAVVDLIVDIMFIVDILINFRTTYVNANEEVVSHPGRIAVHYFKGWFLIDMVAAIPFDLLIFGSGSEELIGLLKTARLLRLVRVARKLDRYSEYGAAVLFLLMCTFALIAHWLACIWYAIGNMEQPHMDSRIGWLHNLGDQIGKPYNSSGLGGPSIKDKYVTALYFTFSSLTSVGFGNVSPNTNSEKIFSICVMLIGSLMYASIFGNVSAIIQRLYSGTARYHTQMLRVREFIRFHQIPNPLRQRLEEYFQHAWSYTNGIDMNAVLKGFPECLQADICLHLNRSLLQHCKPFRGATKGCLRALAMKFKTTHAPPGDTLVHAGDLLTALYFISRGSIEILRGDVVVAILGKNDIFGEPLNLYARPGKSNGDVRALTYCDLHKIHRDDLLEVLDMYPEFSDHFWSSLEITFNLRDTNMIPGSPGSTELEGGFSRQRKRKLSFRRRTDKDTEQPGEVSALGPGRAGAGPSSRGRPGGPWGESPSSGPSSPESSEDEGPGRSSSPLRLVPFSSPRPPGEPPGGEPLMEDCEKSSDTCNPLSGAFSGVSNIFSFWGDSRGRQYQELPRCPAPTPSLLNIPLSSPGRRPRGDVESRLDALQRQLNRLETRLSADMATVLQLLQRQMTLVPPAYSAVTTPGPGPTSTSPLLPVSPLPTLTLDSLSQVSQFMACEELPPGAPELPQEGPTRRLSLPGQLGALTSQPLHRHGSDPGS

| Structure (SMILES) | hERG current change (%, negative = inhibition) at 1uM [%] |
| --- | --- |
| COc1ccc2c(-c3ccccc3)cc3nnnn3c2c1 | 9.5 |
| CCCCSCCCNC(=O)Nc1ccc(C)c(C)c1 | 7.24 |
| Cc1ccc2nc(SCC(=O)Nc3cccc(Cl)c3)nc(=O)n2c1 | 9.15 |
| O=C1CN(C(=O)c2cnccn2)c2ccccc2N1 | 17.4 |
| O=C(c1cc2cc3ccc(Cl)cc3nc2o1)N1CCC2(CC1)OCCO2 | -0.222 |
| NC(=O)c1ccc(-n2nc(C(F)(F)F)c3c2CCCC3)cc1 | -1.73 |
| O=C(CN1C(=O)NC2(CCCC2)C1=O)N1CCN(S(=O)(=O)c2ccccc2F)CC1 | 9.86 |
| Cl.N=C(N)SCc1cccc2ccccc12 | 2.46 |
| Cc1cccc(-c2nc(CSCC(=O)NCc3cccs3)c(C)o2)c1 | 12.3 |
| O=C(NCc1ccccc1)Nc1cccn(Cc2ccc(Cl)cc2)c1=O | 15.2 |
| O=[N+]([O-])c1cc(-c2nnc(N3CCOCC3)c3ccccc23)ccc1N1CCOCC1 | -8.61 |
| COc1ccc(-c2noc(CSc3nc(-c4ccccc4)cc(=O)[nH]3)n2)cc1OC | 5.68 |
| Cc1ccc2[nH]c3c(NCCCN4CCCC4=O)ncnc3c2c1 | 5.27 |
| C[n+]1cccc(C(=O)NNC(=O)C23CC4CC(CC(C4)C2)C3)c1.[I-] | 17.3 |
| CC[C@@H](C(=O)[C@@H](C)[C@@H](O)[C@H](C)CCc1ccc(C)c(O)c1C(=O)[O-])[C@H]1O[C@](CC)([C@H]2CC[C@](O)(CC)[C@H](C)O2)C[C@@H]1C.[Na+] | 2.26 |
| O=C(COC(=O)C1=COCCO1)Nc1ncc(C(F)(F)F)cc1Cl | 10.8 |
| COc1cc2c(cc1OC)-c1cc(Nc3ccc4c(c3)OCCO4)nc(=O)n1CC2 | 1.71 |
| O=C(/C=C/c1ccc(F)cc1)NC(=S)NNC(=O)c1cnccn1 | 17 |
| CCCCN=C(NNc1ccc(Br)cc1)C(=O)OCC | -0.962 |
| CC(=O)N1CCOc2ccc(S(=O)(=O)N3CCC(C(=O)Nc4ccc(C)cc4C)CC3)cc21 | 17.2 |
| Cc1ccc(-c2nnn(CC(=O)N(CCCO)C(C(=O)NC3CCCC3)c3ccc(F)cc3)n2)o1 (stereo not drawn) | 15.9 |
| Cc1ccnc(N2CCC(C(=O)Nc3nnc(C)s3)CC2)n1 | 12.9 |

| Structure (SMILES) | hERG current change (%, negative = inhibition) at 1uM [%] |
| --- | --- |
| CCC(C)(C(=O)Nc1ccccc1C)N(C(=O)CNC(C)=O)c1ccccc1C (stereo not drawn) | 10.7 |
| C(=N\Nc1nc(N2CCCCC2)nc(N2CCCCC2)n1)/c1c[nH]c2ccccc12 | 15.5 |
| CCOc1ccc(S(=O)(=O)N(C)CC(=O)NCc2ccco2)cc1 | 9.5 |
| COc1cc(/C=C(\C#N)c2nc3ccccc3[nH]2)ccc1Oc1ccc([N+](=O)[O-])cn1 | 5.4 |
| CCCCn1c(SCC(=O)N2CC(=O)Nc3ccccc32)nnc1-c1ccoc1C | 1.88 |
| COc1ccc(C2=CSC3=C(C(=O)c4cccc(S(=O)(=O)N(C)C)c4)CCN23)cc1 | 1.9 |
| Cc1ccn2cc(CCNS(=O)(=O)c3ccc4ccccc4c3)nc2c1 | -18.9 |
| COc1ccc([C@H]2CC(=O)C=C(c3cc4ccccc4s3)C2)cc1OC | 15.2 |
| Cc1cc(OCc2cc3c(cc2Cl)OCO3)c2c(C)cc(=O)oc2c1 | 7.47 |
| Cl.OC(COc1ccccc1Br)CN1CCNCC1 (stereo not drawn) | 4.67 |
| COc1ccc(CNC(=O)c2ccc(NS(=O)(=O)c3c(C)noc3C)cc2)cc1 | 7.58 |
| CC1CCN(C(=O)c2[nH]cnc2C(=O)N[C@@H](C)C(=O)OC(C)(C)C)CC1 | 1.65 |
| O=c1c2ccccc2nc(SCc2ccc(F)cc2Cl)n1CCCN1CCOCC1 | 6.94 |
| CCOC(=O)CSc1nc2c(sc(=S)n2-c2ccccc2OC)c(=O)n1Cc1ccco1 | -3.5 |
| CC(C)=CCc1c(-c2ccc(O)cc2O)oc2cc3c(c(O)c2c1=O)C=CC(C)(C)O3 | 18.8 |
| Cc1ccccc1Nc1nnc(SCc2cc([N+](=O)[O-])cc3c2OCOC3)s1 | -6.51 |
| Cc1cccc(Cn2c(CN3CCN(Cc4ccccc4)CC3)nc3c2c(=O)[nH]c(=O)n3C)c1 | -40.7 |
| O=C1NC(=O)C(=Cc2ccsc2)C(=O)N1 | 8.19 |
| CCC(=O)Nc1cc2nn(-c3ccc(C)cc3)nc2cc1C | 12.5 |
| S=c1[nH]nc(Nc2ccc(Cl)cc2)s1 | 13.8 |
| Cc1ccc(O)c(-c2cc(C(F)(F)F)[nH]n2)c1 | 3.07 |
| O=C(Cc1ccccc1)Nc1nnc(-c2ccccc2)o1 | 8.1 |

| Structure (SMILES) | hERG current change (%, negative = inhibition) at 1uM [%] |
| --- | --- |
| O=c1c2ccccc2nnn1COc1ccc(F)cc1Cl | 14.2 |
| CCc1cccc(OCC2Cn3c(nc4c3c(=O)[nH]c(=O)n4C)O2)c1 (stereo not drawn) | 17.1 |
| CCCCN1C(=O)c2ccc(C(=O)Nc3cccc(C)c3C)cc2C1=O | 10.6 |
| CC(C)=CC(=O)NCc1c(Cl)cccc1-n1cccc1 | 21.7 |
| COc1ccccc1CC(=O)Nc1ccc(F)cc1F | 6.65 |
| CCC(=O)c1ccc(OCc2ccc(C(=O)c3ccccc3)cc2)cc1 | 7.18 |
| Cc1cccc(N2CC(C(=O)Nc3ccc(S(=O)(=O)Nc4nccs4)cc3)CC2=O)c1C (stereo not drawn) | 15.5 |
| CC(=O)Nc1ccc(N(C(=O)c2ccccn2)C(C(=O)NC2CCCCC2)c2ccc(F)cc2)cc1 (stereo not drawn) | 12.2 |
| Cc1cccn2c(=O)c3cc(S(=O)(=O)c4ccc(Br)cc4)c(=N)n(C4CCCC4)c3nc12 | 14.5 |
| CC1(C)Cc2cccc(C(=O)NCc3ccco3)c2O1 | 12.5 |
| COCC(=O)Nc1ccc([N+](=O)[O-])cc1OC | 1.61 |
| Cl.c1cncc(CNCCc2c[nH]c3ccccc23)c1 | 5.98 |
| CCOC(=O)/C=C/C(=O)OCC(=O)Nc1c(Cl)cccc1Cl | 15.7 |
| CC(=O)NCC(=O)NC(C(=O)Nc1ccc2c(c1)OCCO2)c1ccccc1 (stereo not drawn) | 5.47 |
| CSc1ccc(NC(=O)N2CCN(c3nc4ccccc4s3)CC2)cc1 | 3.41 |
| C=CCOc1ccc(/C=N/NC(=O)CN(c2cc(Cl)ccc2OC)S(=O)(=O)c2ccc(C)c([N+](=O)[O-])c2)cc1 | -3.4 |
| O=C(O)c1cc(-c2ccccc2)c(N2CCOCC2)s1 | 9.67 |
| O=c1c(/C=N/N2CCOCC2)c(O)n(-c2ccccc2)c(=S)n1-c1ccccc1 | 12.8 |
| CCOC(=O)c1c(/N=C/c2ccc(OC)cc2O)sc2c1CCN(C)C2 | 4.91 |
| Cc1ccc2c(c1)c(-c1csc(N)n1)c(C)n2C | 4.12 |
| COc1ccc(-c2nnn(CC(=O)N(c3cccc(O)c3)C(C)C(=O)NC3CCCC3)n2)cc1OC (stereo not drawn) | 7.56 |
| CCOC(=O)C1(CCCc2ccccc2)CCN(CCCn2cccn2)CC1 | -84.6 |

| Structure (SMILES) | hERG current change (%, negative = inhibition) at 1uM [%] |
| --- | --- |
| Clc1ccc(-c2nnc(SCc3nc4ccccc4[nH]3)o2)c(Cl)c1 | 6.79 |
| CC(=O)Nc1ccc(S(=O)(=O)NC2=C(N3CCN(C)CC3)C(=O)c3ccccc3C2=O)cc1 | 3.6 |
| Cc1ccc([N+](=O)[O-])cc1S(=O)(=O)N1CCN(C)CC1 | 5.62 |
| O=C(c1cccc(F)c1)N1C2C=CC(C2)C1(C(F)(F)F)C(F)(F)F (stereo not drawn) | 9.63 |
| O=C(NC1CCCCC1)C1CC=CCC1C(=O)OCC(Cl)=C(Cl)Cl (stereo not drawn) | -3.41 |
| COc1nc(NCc2ccco2)nc(NC2CCCCC2)n1 | 2.61 |
| CCOC(=O)Nc1ccc(OC)cc1S(=O)(=O)N1CCCCC1 | 3.28 |
| CCCn1c(=S)[nH]c2cc(Cl)ccc21 | 13.7 |
| COC(=O)c1ccc(C(=O)OC)c(NC(=O)CCc2ccc(C)o2)c1 | 12.6 |
| CCC(C)(C)NC(=O)C1CC(=O)N(CCc2ccc(F)cc2)C1 (stereo not drawn) | 13.1 |
| COc1ccc2c(CC(=O)N3CCN(S(=O)(=O)c4cccs4)CC3)coc2c1 | 6.62 |
| CCN1CCCC1CNC(=O)c1c(O)c2c([nH]c1=O)CCCC2 (stereo not drawn) | 8.57 |
| CC(C)c1cc(C(=O)N2CCCC(Nc3ccc(F)cc3)C2)n[nH]1 (stereo not drawn) | 8.47 |
| CSc1ncccc1C(=O)OCn1nnc2ccccc2c1=O | 10.2 |
| COc1cc(/C=C/CO)cc(OC)c1O[C@@H]1O[C@H](CO)[C@@H](O)[C@H](O)[C@H]1O | 11.5 |
| CN1C(=O)C(C)(C)c2cc(S(=O)(=O)N3CCC(C(=O)Nc4ccc(Cl)cc4)CC3)ccc21 | 9.12 |
| c1ccc2[nH]c(-c3cscn3)nc2c1 | 12.7 |
| CCCNC(=O)CN(c1ccc(F)c(Cl)c1)S(C)(=O)=O | 12.6 |
| CCN(CC)C(=O)CSc1nnc(-c2ccccn2)n1Cc1ccccc1 | -4.89 |
| Clc1ccc(OCCN2CCCCC2)cc1Cl.O=C(O)C(=O)O | -6.65 |
| COC(=O)c1ccccc1NC(=O)C1CC(=O)N(C2CCCCC2)C1 (stereo not drawn) | -16.9 |
